# Measurements as given in the supplement of paper PMC8728848.
# The other results are listed elsewhere or left out.
# B1: SAOUHSC 00176 (Staphylococcus aureus) (protein)
# chain: MSKILKCITLAVVMLLIVTACGPNRSKEDIDKALNKDNSKDKPNQLTMWVDGDKQMAFYKKITDQYTKKTGIKVKLVNIGQNDQLENISLDAPAGKGPDIFFLAHDNTGSAYLQGLAAEIKLSKDELKGFNKQALKAMNYDNKQLALPAIVETTALFYNKKLVKNAPQTLEEVEANAAKLTDSKKKQYGMLFDAKNFYFNYPFLFGNDDYIFKKNGSEYDIHQLGLNSKHVVKNAERLQKWYDKGYLPKAATHDVMIGLFKEGKVGQFVTGPWNINEYQETFGKDLGVTTLPTDGGKPMKPFLGVRGWYLSEYSKHKYWAKDLMLYITSKDTLQKYTDEMSEITGRVDVKSSNPNLKVFEKQARHAEPMPNIPEMRQVWEPMGNASIFISNGKNPKQALDEATNDITQNIKILHPSQNDKKGD
# Tests used:
# Assay in all cases: glycan array binding signal (z-score within array); higher = stronger binding
# Details in all cases: glycan notation: IUPAC condensed, linker removed
# Fuc(a1-2)Gal = molecular target: Fuc(a1-2)Gal
# Procedure, shortened: (§1)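 The Consortium for Functional Glycomics database supplied 3228 glycan arrays, of which those lacking an available protein sequence were dropped. The binding signal, a within-array Z-score, was averaged across arrays of the same protein sequence and across linkers. Negative scores can be read as non-binding.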
# Fuc(a1-2)Gal(b1-3)GalNAc = molecular target: Fuc(a1-2)Gal(b1-3)GalNAc
# Procedure, shortened: as §1
# [1] = molecular target: Fuc(a1-2)Gal(b1-3)GalNAc(a1-3)[Fuc(a1-2)]Gal(b1-4)Glc
# Procedure, shortened: as §1
# [2] = molecular target: Fuc(a1-2)Gal(b1-3)GalNAc(a1-3)[Fuc(a1-2)]Gal(b1-4)GlcNAc
# Procedure, shortened: as §1
# [3] = molecular target: Fuc(a1-2)Gal(b1-3)GalNAc(b1-3)Gal
# Procedure, shortened: as §1
# [4] = molecular target: Fuc(a1-2)Gal(b1-3)GalNAc(b1-3)Gal(a1-4)Gal(b1-4)Glc
# Procedure, shortened: as §1
# [5] = molecular target: Fuc(a1-2)Gal(b1-3)GalNAc(b1-4)[Neu5Ac(a2-3)]Gal(b1-4)Glc
# Procedure, shortened: as §1
# Fuc(a1-2)Gal(b1-3)GlcNAc = molecular target: Fuc(a1-2)Gal(b1-3)GlcNAc
# Procedure, shortened: as §1
# [6] = molecular target: Fuc(a1-2)Gal(b1-3)GlcNAc(b1-2)Man(a1-3)[Fuc(a1-2)Gal(b1-3)GlcNAc(b1-2)Man(a1-6)]Man(b1-4)GlcNAc(b1-4)GlcNAc
# Procedure, shortened: as §1
# [7] = molecular target: Fuc(a1-2)Gal(b1-3)GlcNAc(b1-2)Man(a1-3)[Fuc(a1-2)Gal(b1-3)GlcNAc(b1-2)Man(a1-6)]Man(b1-4)GlcNAc(b1-4)[Fuc(a1-6)]GlcNAc
# Procedure, shortened: as §1
# [8] = molecular target: Fuc(a1-2)Gal(b1-3)GlcNAc(b1-3)Gal(b1-4)Glc
# Procedure, shortened: as §1
# [9] = molecular target: Fuc(a1-2)Gal(b1-3)GlcNAc(b1-3)GalNAc
# Procedure, shortened: as §1
# [10] = molecular target: Fuc(a1-2)Gal(b1-3)GlcNAc(b1-3)[Fuc(a1-2)Gal(b1-3)GlcNAc(b1-6)]GalNAc
# Procedure, shortened: as §1
# [11] = molecular target: Fuc(a1-2)Gal(b1-3)GlcNAc(b1-3)[Gal(b1-4)GlcNAc(b1-6)]Gal(b1-4)Glc
# Procedure, shortened: as §1
# [12] = molecular target: Fuc(a1-2)Gal(b1-3)GlcNAc(b1-3)[Neu5Ac(a2-6)Gal(b1-4)GlcNAc(b1-6)]Gal(b1-4)Glc
# Procedure, shortened: as §1
# [13] = molecular target: Fuc(a1-2)Gal(b1-3)GlcNAc6S
# Procedure, shortened: as §1
# [14] = molecular target: Fuc(a1-2)Gal(b1-3)[Fuc(a1-4)]GlcNAc
# Procedure, shortened: as §1
# [15] = molecular target: Fuc(a1-2)Gal(b1-3)[Fuc(a1-4)]GlcNAc(b1-2)Man(a1-3)[Fuc(a1-2)Gal(b1-3)[Fuc(a1-4)]GlcNAc(b1-2)Man(a1-3)]Man(b1-4)GlcNAc(b1-4)GlcNAc
# Procedure, shortened: as §1
# [16] = molecular target: Fuc(a1-2)Gal(b1-3)[Fuc(a1-4)]GlcNAc(b1-2)Man(a1-3)[Fuc(a1-2)Gal(b1-3)[Fuc(a1-4)]GlcNAc(b1-2)Man(a1-6)]Man(b1-4)GlcNAc(b1-4)[Fuc(a1-6)]GlcNAc(b1-4)[Fuc(a1-6)]GlcNAc
# Procedure, shortened: as §1
# [17] = molecular target: Fuc(a1-2)Gal(b1-3)[Fuc(a1-4)]GlcNAc(b1-3)[Fuc(a1-3)[Gal(b1-4)]GlcNAc(b1-6)]Gal(b1-4)Glc
# Procedure, shortened: as §1
# [18] = molecular target: Fuc(a1-2)Gal(b1-3)[Fuc(a1-4)]GlcNAc(b1-3)[Gal(b1-4)GlcNAc(b1-6)]Gal(b1-4)Glc
# Procedure, shortened: as §1
# Fuc(a1-2)Gal(b1-4)Glc = molecular target: Fuc(a1-2)Gal(b1-4)Glc
# Procedure, shortened: as §1
# Fuc(a1-2)Gal(b1-4)Glc6S = molecular target: Fuc(a1-2)Gal(b1-4)Glc6S
# Procedure, shortened: as §1
# Fuc(a1-2)Gal(b1-4)GlcNAc = molecular target: Fuc(a1-2)Gal(b1-4)GlcNAc
# Procedure, shortened: as §1
# [19] = molecular target: Fuc(a1-2)Gal(b1-4)GlcNAc(b1-2)Man
# Procedure, shortened: as §1
# [20] = molecular target: Fuc(a1-2)Gal(b1-4)GlcNAc(b1-2)Man(a1-3)[Fuc(a1-2)Gal(b1-4)GlcNAc(b1-2)Man(a1-6)]Man(b1-4)GlcNAc(b1-4)GlcNAc
# Procedure, shortened: as §1
# [21] = molecular target: Fuc(a1-2)Gal(b1-4)GlcNAc(b1-2)Man(a1-3)[Fuc(a1-2)Gal(b1-4)GlcNAc(b1-2)Man(a1-6)]Man(b1-4)GlcNAc(b1-4)[Fuc(a1-6)]GlcNAc
# Procedure, shortened: as §1
# [22] = molecular target: Fuc(a1-2)Gal(b1-4)GlcNAc(b1-2)[Fuc(a1-2)Gal(b1-4)GlcNAc(b1-4)]Man(a1-3)[Fuc(a1-2)Gal(b1-4)GlcNAc(b1-2)Man(a1-6)]Man(b1-4)GlcNAc(b1-4)GlcNAc
# Procedure, shortened: as §1
# [23] = molecular target: Fuc(a1-2)Gal(b1-4)GlcNAc(b1-3)Gal(b1-4)GlcNAc
# Procedure, shortened: as §1
# [24] = molecular target: Fuc(a1-2)Gal(b1-4)GlcNAc(b1-3)Gal(b1-4)GlcNAc(b1-2)Man(a1-3)[Fuc(a1-2)Gal(b1-4)GlcNAc(b1-3)Gal(b1-4)GlcNAc(b1-2)Man(a1-6)]Man(b1-4)GlcNAc(b1-4)GlcNAc
# Procedure, shortened: as §1
binder,measurement,setting,value
B1,glycan array binding signal (z-score),Fuc(a1-2)Gal,0.137
same,glycan array binding signal (z-score),Fuc(a1-2)Gal(b1-3)GalNAc,-0.088
same,glycan array binding signal (z-score),[1],-0.166
same,glycan array binding signal (z-score),[2],-0.084
same,glycan array binding signal (z-score),[3],-0.071
same,glycan array binding signal (z-score),[4],-0.109
same,glycan array binding signal (z-score),[5],-0.094
same,glycan array binding signal (z-score),Fuc(a1-2)Gal(b1-3)GlcNAc,-0.099
same,glycan array binding signal (z-score),[6],0.385
same,glycan array binding signal (z-score),[7],0.33
same,glycan array binding signal (z-score),[8],-0.104
same,glycan array binding signal (z-score),[9],-0.053
same,glycan array binding signal (z-score),[10],0.127
same,glycan array binding signal (z-score),[11],-0.063
same,glycan array binding signal (z-score),[12],-0.184
same,glycan array binding signal (z-score),[13],-0.138
same,glycan array binding signal (z-score),[14],0.006
same,glycan array binding signal (z-score),[15],0.03
same,glycan array binding signal (z-score),[16],-0.09
same,glycan array binding signal (z-score),[17],-0.101
same,glycan array binding signal (z-score),[18],0.052
same,glycan array binding signal (z-score),Fuc(a1-2)Gal(b1-4)Glc,-0.185
same,glycan array binding signal (z-score),Fuc(a1-2)Gal(b1-4)Glc6S,-0.172
same,glycan array binding signal (z-score),Fuc(a1-2)Gal(b1-4)GlcNAc,-0.079
same,glycan array binding signal (z-score),[19],-0.003
same,glycan array binding signal (z-score),[20],-0.083
same,glycan array binding signal (z-score),[21],0.688
same,glycan array binding signal (z-score),[22],-0.004
same,glycan array binding signal (z-score),[23],-0.09
same,glycan array binding signal (z-score),[24],0.014
